Results are given in words; binding and its absence hold for the method and conditions named. In cells and extracts the contact can be indirect. Some entries that bind do so weakly or less than the wild type. Blank lines part the entries; values can stand above or below the substance they belong to.
How the values were obtained:
[1] = molecular target: DYNC2H1(N)-mCherry (UniProt Q8NCM8); test: co-IP; lysates of HEK293T cells coexpressing DYNC2H1(N)-mChe and an EGFP-fused DYNC2LI1 construct; precipitated with GST-tagged anti-mChe Nb (LaM-2) on glutathione-Sepharose 4B beads, 4 °C, 1 h; HMDEKN lysis buffer (10 mM HEPES pH 7.4, 5 mM MgSO4, 1 mM DTT, 0.5 mM EDTA, 25 mM KCl, 0.05% NP-40); immunoblot with anti-mChe and anti-GFP (Fig. 1c)
[2] = molecular target: DYNC2H1(N)-EGFP (UniProt Q8NCM8); test: co-IP; lysates of HEK293T cells coexpressing DYNC2H1(N)-EGFP, an EGFP-fused DYNC2LI1 construct and mChe-WDR60(627–1066) or mChe-WDR34(106–536); precipitated with GST–anti-GFP Nb on glutathione-Sepharose 4B beads (both EGFP proteins are captured), 4 °C, 1 h; HMDEKN lysis buffer; immunoblot with anti-mChe and anti-GFP (Fig. 1d, Fig. S1a)
[3] = molecular target: EGFP-DYNC2LI1(1–207) (human) (UniProt Q8TCX1); test: as above
[4] = molecular target: EGFP-DYNC2LI1(P120S) (human) (UniProt Q8TCX1); test: as above
[5] = molecular target: EGFP-DYNC2LI1(1–297) (human) (UniProt Q8TCX1); test: as above
[6] = molecular target: EGFP-DYNC2LI1(WT) (human) (UniProt Q8TCX1); test: as above
[7] = molecular target: EGFP-DYNC2LI1(1–317) (human) (UniProt Q8TCX1); test: as above
[8] = molecular target: EGFP-DYNC2LI1(1–240) (human) (UniProt Q8TCX1); test: as above
[9] = molecular target: EGFP-DYNC2LI1(T221I) (human) (UniProt Q8TCX1); test: as above
[10] = molecular target: EGFP-DYNC2LI1(241–352) (human) (UniProt Q8TCX1); test: as above
[11] = molecular target: EGFP-DYNC2LI1(L117V) (human) (UniProt Q8TCX1); test: as above
[12] = molecular target: EGFP-DYNC2LI1(Δ302–332) (human) (UniProt Q8TCX1); test: as above

The chains behind the UniProt entries cited, without tags or fusion partners. Where a name states a change or a piece, a line headed by the entry shows the natural chain unless it says otherwise. A line that says so, or that is headed by a name, gives the form on record, which may keep a tag or linker. Residues count along the entry.
UniProt Q8NCM8, residues 1-1090: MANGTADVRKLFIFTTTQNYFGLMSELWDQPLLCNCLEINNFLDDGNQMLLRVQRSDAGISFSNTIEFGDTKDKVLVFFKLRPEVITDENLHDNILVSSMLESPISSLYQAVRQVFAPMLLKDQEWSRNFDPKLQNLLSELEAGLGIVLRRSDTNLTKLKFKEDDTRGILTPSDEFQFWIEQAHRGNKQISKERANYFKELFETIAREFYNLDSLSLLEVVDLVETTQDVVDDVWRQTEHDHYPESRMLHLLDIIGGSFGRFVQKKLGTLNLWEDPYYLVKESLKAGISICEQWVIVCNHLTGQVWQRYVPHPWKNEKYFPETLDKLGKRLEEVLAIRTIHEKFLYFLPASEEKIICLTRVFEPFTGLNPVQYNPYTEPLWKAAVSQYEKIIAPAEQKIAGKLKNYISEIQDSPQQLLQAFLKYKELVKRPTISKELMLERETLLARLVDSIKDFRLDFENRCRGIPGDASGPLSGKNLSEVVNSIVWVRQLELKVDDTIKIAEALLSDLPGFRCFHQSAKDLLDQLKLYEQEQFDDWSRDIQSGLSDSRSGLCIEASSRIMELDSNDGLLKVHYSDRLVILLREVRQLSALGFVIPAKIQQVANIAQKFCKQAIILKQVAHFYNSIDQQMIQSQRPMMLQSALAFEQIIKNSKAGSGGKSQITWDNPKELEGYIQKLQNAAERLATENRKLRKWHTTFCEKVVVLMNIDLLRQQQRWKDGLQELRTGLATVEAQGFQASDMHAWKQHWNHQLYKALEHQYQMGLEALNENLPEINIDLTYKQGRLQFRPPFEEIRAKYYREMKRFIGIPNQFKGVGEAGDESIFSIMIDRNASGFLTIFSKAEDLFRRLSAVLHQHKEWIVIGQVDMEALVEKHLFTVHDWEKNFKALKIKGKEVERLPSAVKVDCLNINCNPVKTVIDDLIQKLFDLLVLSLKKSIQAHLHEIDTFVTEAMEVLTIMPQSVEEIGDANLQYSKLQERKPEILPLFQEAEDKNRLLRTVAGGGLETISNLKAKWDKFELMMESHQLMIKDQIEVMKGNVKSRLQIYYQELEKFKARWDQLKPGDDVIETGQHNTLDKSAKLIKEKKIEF
EGFP-DYNC2LI1(241–352) (Q8TCX1, residues 240-351): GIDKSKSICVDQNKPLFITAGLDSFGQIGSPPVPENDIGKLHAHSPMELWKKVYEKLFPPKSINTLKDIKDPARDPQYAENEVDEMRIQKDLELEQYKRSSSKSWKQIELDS
EGFP-DYNC2LI1(L117V) (Q8TCX1-2, form named): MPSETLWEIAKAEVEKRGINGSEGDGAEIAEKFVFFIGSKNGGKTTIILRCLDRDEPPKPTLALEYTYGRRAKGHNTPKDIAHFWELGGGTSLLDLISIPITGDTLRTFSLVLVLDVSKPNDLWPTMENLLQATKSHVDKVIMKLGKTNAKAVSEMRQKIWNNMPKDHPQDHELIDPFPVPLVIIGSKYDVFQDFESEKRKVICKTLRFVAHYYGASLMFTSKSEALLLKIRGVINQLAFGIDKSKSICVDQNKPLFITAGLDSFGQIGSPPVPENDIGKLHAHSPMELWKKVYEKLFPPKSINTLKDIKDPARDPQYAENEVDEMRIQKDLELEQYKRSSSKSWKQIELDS
EGFP-DYNC2LI1(P120S) (Q8TCX1-2, form named): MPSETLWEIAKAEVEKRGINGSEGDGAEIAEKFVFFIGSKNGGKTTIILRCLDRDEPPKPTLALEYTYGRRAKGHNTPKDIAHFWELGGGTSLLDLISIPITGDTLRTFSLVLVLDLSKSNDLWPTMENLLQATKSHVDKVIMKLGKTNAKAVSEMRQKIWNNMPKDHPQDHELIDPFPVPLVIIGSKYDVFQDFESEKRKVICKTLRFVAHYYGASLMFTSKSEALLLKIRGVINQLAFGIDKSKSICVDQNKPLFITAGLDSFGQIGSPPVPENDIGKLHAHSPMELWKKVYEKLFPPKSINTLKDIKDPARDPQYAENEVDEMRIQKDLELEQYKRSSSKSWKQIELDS
EGFP-DYNC2LI1(T221I) (Q8TCX1-2, form named): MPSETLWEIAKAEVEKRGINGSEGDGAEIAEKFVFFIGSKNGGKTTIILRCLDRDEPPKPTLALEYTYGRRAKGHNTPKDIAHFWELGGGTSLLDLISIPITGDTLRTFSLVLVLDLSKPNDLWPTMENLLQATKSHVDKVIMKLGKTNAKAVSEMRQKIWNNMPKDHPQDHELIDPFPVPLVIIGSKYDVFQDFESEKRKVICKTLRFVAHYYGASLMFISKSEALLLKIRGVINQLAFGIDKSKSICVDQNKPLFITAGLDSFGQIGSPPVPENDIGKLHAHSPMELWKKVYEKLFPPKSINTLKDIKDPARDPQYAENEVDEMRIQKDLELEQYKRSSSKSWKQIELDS
EGFP-DYNC2LI1(WT) (Q8TCX1-2, form named): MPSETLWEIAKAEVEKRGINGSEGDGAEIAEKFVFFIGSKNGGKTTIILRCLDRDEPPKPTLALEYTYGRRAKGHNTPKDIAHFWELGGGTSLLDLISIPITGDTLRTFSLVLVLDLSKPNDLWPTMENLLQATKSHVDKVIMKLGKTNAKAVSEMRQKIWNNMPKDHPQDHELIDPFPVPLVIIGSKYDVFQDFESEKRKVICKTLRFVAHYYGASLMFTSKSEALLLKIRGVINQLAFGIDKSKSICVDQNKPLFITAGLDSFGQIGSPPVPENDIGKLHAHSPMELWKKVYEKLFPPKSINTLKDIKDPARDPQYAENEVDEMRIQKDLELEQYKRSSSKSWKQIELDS
EGFP-DYNC2LI1(1–207) (Q8TCX1-2, form named): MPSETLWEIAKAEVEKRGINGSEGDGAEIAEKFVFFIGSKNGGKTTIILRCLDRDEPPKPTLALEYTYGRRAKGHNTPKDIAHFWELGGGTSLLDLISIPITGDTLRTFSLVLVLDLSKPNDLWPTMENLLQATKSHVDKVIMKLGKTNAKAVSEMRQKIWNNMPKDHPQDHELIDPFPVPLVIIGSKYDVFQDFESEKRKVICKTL
EGFP-DYNC2LI1(1–297) (Q8TCX1-2, form named): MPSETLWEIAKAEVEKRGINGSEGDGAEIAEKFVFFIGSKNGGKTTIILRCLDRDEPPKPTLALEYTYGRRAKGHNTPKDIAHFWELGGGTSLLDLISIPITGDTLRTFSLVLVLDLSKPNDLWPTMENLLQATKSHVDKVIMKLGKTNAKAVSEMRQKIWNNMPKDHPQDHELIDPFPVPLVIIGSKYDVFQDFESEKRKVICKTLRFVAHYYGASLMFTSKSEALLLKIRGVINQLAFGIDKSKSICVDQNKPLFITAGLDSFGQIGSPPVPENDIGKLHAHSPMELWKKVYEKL
EGFP-DYNC2LI1(1–317) (Q8TCX1-2, form named): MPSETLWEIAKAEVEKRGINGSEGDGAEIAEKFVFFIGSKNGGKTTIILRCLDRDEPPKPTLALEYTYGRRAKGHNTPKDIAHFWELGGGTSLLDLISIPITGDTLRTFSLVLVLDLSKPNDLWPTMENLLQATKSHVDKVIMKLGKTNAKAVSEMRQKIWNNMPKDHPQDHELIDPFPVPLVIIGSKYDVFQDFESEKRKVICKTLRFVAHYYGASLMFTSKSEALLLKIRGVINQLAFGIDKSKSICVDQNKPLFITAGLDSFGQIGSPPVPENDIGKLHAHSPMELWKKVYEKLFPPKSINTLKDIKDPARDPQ
EGFP-DYNC2LI1(1–240) (Q8TCX1-2, form named): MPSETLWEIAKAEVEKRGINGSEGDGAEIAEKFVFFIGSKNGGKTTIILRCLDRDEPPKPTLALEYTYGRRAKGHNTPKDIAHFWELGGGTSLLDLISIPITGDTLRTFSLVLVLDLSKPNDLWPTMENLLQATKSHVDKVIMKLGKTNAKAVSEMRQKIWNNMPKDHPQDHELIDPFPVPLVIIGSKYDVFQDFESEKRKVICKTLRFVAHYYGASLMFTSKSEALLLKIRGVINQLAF
EGFP-DYNC2LI1(Δ302–332) (Q8TCX1-2, form named): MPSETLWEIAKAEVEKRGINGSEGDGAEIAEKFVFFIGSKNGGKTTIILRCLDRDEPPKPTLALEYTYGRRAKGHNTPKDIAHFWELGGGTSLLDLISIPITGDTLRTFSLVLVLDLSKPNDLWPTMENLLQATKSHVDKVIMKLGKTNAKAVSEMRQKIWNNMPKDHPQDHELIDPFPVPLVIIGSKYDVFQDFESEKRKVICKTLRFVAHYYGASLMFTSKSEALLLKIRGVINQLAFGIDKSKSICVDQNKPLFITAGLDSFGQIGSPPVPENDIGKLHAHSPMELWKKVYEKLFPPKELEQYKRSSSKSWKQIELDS
UniProt Q96EX3, residues 106-536: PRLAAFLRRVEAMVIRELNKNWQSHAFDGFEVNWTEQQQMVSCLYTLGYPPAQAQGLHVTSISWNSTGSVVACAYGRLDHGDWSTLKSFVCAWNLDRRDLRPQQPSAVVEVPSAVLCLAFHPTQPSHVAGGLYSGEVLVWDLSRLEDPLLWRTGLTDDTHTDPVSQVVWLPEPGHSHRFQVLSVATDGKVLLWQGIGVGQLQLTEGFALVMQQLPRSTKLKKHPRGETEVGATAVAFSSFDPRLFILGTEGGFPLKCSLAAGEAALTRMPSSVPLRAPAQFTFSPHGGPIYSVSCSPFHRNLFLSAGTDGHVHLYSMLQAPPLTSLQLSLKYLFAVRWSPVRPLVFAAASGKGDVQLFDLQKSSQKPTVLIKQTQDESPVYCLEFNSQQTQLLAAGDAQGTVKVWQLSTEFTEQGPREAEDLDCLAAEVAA
UniProt Q8WVS4, residues 627-1066: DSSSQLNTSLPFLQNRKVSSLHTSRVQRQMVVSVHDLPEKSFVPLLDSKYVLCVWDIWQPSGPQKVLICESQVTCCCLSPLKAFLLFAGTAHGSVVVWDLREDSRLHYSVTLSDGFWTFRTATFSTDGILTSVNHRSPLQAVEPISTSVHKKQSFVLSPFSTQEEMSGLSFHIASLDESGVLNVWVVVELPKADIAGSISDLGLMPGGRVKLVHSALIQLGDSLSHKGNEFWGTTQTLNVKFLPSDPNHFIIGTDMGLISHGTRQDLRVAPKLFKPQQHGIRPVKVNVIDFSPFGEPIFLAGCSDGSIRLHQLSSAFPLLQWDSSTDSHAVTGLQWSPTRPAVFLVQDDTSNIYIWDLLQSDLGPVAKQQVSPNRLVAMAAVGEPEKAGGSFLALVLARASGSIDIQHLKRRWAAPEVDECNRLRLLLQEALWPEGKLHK

binding [1]: no binding
Substance: EGFP-DYNC2LI1(241–352) (from UniProt Q8TCX1-2 241-352) (domain or fragment)

binding [1]: binds
Substance: EGFP-DYNC2LI1(L117V) (from UniProt Q8TCX1-2 1-352)

binding [1]: binds
Substance: EGFP-DYNC2LI1(P120S) (from UniProt Q8TCX1-2 1-352)

binding [1]: binds
Substance: EGFP-DYNC2LI1(T221I) (from UniProt Q8TCX1-2 1-352)

binding [1]: binds
Substance: EGFP-DYNC2LI1(WT) (from UniProt Q8TCX1-2 1-352)

binding [2]: binds
Substance: mChe-WDR34(106–536) (from UniProt Q96EX3 106-536) (domain or fragment)

binding [3]: no binding
binding [4]: no binding
binding [5]: no binding
binding [6]: binds
binding [7]: no binding
binding [8]: no binding
binding [9]: binds
binding [10]: no binding
binding [11]: no binding
binding [12]: no binding
Substance: mChe-WDR60(627–1066) (from UniProt Q8WVS4 627-1066) (domain or fragment)
